Lines with a small IC50 respond at low doses; a fit beyond the top or the lowest dose is shown as a bound at that dose. For AUC the same curve is integrated over the 256-fold range of doses and scaled to a fraction; the more sensitive the line, the further below 1. For some of these results: An inferred top dose comes from the curve model; the source does not state it. For some of these results: Drugs with an entry number were screened twice under separate entries, and the two screens often disagree.
Key:
Experiment in all cases: Viability of human cancer cell lines after 72 h of drug (GDSC screen)
[1] = compound: C#Cc1cccc(Nc2ncnc3cc(OC)c(OCCCCCCC(=O)NO)cc23)c1 [CUDC-101]; conditions: top dose 5.12 µM; top dose inferred
Procedure: (§1)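 Human cancer cell lines in 384-well plates, medium with 10% serum, drug for 72 h over a 256-fold dose range (nine 2-fold or five 4-fold steps up to the top dose). Adherent lines were fixed and stained with the nucleic acid dye Syto60, suspension lines read with resazurin; signal relative to control wells, capped at 0 and 100%. One two-parameter sigmoid per drug and line, fitted in a mixed model over all curves with the slope shared within a line.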

[2] = compound: COc1cc(F)c(F)c(Nc2ccc(I)cc2F)c1NS(=O)(=O)C1(C[C@H](O)CO)CC1 [RDEA119]; conditions: top dose 5 µM, top dose inferred
Procedure: as §1

[3] = compound: Fc1cc(-c2ccnc(Nc3ccc(-n4cnc(N5CCOCC5)n4)cc3)n2)cc(N2CCOCC2)c1 [JNK-9L]; conditions: top dose 5.12 µM; top dose inferred
Procedure: as §1

[4] = compound: NCC(=O)Nc1ccc(-n2nc(C(F)(F)F)cc2-c2ccc3c(ccc4ccccc43)c2)cc1 [OSU-03012]; conditions: top dose 16 µM; top dose inferred
Procedure: as §1

[5] = compound: O=c1[nH]cc(F)c(=O)[nH]1 [5-Fluorouracil]; conditions: top dose 32 µM; top dose inferred
Procedure: as §1

[6] = compound: OC[C@H](Cc1ccccc1)Nc1nc(Oc2ccc3c(c2)CCC3)nc2c1ncn2Cc1ccc(-c2ccccc2)cc1 [QS11]; conditions: top dose 10.24 µM
Procedure: as §1

Cell Line	AUC [1]	IC50 [1] [nM]	AUC ([2]; screen: GDSC drug entry 1014)	IC50 ([2]; screen: GDSC drug entry 1014) [nM]	AUC ([2]; screen: GDSC drug entry 1526)	IC50 ([2]; screen: GDSC drug entry 1526) [nM]	AUC [3]	IC50 [3] [nM]	AUC [4]	IC50 [4] [nM]	AUC [5]	IC50 [5] [nM]	AUC [6]	IC50 [6] [nM]
GAK (melanoma, adherent)	0.716	1260	0.625	678	0.613	629	0.664	892	0.754	5140	0.946	> 32000	0.935	> 10200
GDM-1 (acute myeloid leukaemia, suspension)	0.333	112	0.987	> 5000	0.939	> 5000	0.466	259	0.754	5170	0.528	2370	0.774	3850
KCL-22 (chronic myeloid leukaemia, suspension)	0.427	209	0.803	2020	0.893	4270	0.505	330	0.55	1340	0.603	3640	0.788	3710
LB647-SCLC (small cell lung carcinoma, semi-adherent)	0.98	> 5120	0.985	> 5000			0.808	3030	0.753	5900	0.931	> 32000	0.801	5710
ME-1 (acute myeloid leukaemia, suspension)	0.62	704	0.567	482	0.866	> 5000	0.7	1220	0.764	6210	0.955	> 32000	0.989	> 10200
MOLM-13 (acute myeloid leukaemia, suspension)	0.301	91.8	0.826	2780	0.758	1630	0.463	256	0.616	2040	0.355	814	0.827	5710
MONO-MAC-6 (acute myeloid leukaemia, suspension)	0.42	191	0.893	> 5000	0.901	> 5000	0.59	573	0.678	3250	0.504	2050	0.824	6550
NB-4 (acute myeloid leukaemia, suspension)	0.173	42.6	0.16	38	0.28	85.6	0.5	320	0.417	620	0.51	2120	0.611	1220
NOMO-1 (acute myeloid leukaemia, suspension)	0.465	254	0.242	49.9	0.244	50.9	0.535	403	0.654	2850	0.376	864	0.923	> 10200
OCI-AML2 (acute myeloid leukaemia, suspension)	0.328	121	0.032	< 19.5	0.059	< 19.5	0.587	521	0.612	1870	0.267	537	0.859	5250
OCI-AML3 (acute myeloid leukaemia, suspension)	0.379	156	0.352	130	0.245	65.8	0.63	690	0.814	7220	0.341	777	0.887	8560
OCI-AML5 (acute myeloid leukaemia, suspension)	0.212	50.3	0.564	460	0.779	1860	0.519	358	0.806	7320	0.407	1140	0.791	4170
PF-382 (T-cell lymphoblastic leukaemia, suspension)	0.265	75.9	0.988	> 5000	0.99	> 5000	0.563	464	0.622	2070	0.803	13600	0.911	> 10200
PL-21 (acute myeloid leukaemia, suspension)	0.54	419			0.797	2820	0.443	217	0.716	4590	0.869	> 32000	0.922	> 10200
REH (B-cell leukaemia, suspension)	0.315	99.7	0.977	> 5000	0.978	> 5000	0.637	754	0.552	1380	0.502	2020	0.898	> 10200
RS4-11 (leukaemia, suspension)	0.249	65.8	0.978	> 5000	0.988	> 5000	0.522	365	0.728	4150	0.497	1970	0.862	7540

— the supplement of paper PMC4967469
